42 sequences from article PMC7819943, “Rice protein-binding microarrays: a tool to detect cis-acting elements near promoter regions in rice” can be followed below.

This is one part of the list.

For this assay, the target named is T1, OsWOX13 (Oryza sativa, UniProt Q5QMM3 1-267).
T1 sequence: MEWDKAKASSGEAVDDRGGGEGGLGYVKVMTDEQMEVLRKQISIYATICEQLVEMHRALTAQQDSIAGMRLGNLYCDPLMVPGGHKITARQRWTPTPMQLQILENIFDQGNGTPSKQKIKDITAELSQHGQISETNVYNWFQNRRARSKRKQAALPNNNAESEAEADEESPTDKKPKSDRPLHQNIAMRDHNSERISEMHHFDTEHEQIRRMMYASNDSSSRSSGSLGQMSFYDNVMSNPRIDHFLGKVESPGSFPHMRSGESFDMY
Nature of the assay: protein-binding microarray (RPBM); PBS, 2% BSA, 51.3 ng/ul salmon testes DNA, 50 uM zinc acetate, 200 nM TF, 25 C, 1 h; high values mean tight binding. The settings on record: protein: recombinant; tags: N-terminal polyhistidine and DsRed monomer fusion (pET32a); label: CyDye5-dUTP incorporated in the synthesized complementary strand; 3' TTTTT single-stranded linker to array surface; dsDNA, one strand shown. A digest of the protocol: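 Transcription factors were made in E. coli BL21-CodonPlus as N-terminal fusions to a polyhistidine tag and DsRed, then purified on Ni–NTA. After primer extension with Cy5-dUTP and blocking with 2% BSA, a custom Agilent array was exposed for 1 h at 25 °C to 200 nM protein in PBS, 2% BSA, salmon testes DNA and 50 µM zinc acetate. Washed arrays were scanned on an Axon 4000B, and the binding signal is per-feature fluorescence intensity in arbitrary units.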
Regarding “AAATTTTGACATAATTACCTATCATGTAACACCAAATGAACGGAGTCACCTAGTGCAG”, the binding signal is 21800 fluorescence intensity (a.u.).
On to “AAAACACCAAATTAGTTTTATTAAAACTAACTTTCAAATACGGAGTCACCTAGTGCAG”, for which the binding signal was 4390 fluorescence intensity (a.u.).
“ACAACATTACCCATTAACATGTGATTAGTTAAATAGTAGCCGGAGTCACCTAGTGCAG”: the binding signal is 8010 fluorescence intensity (a.u.).
For the sequence “GTAATCCGCAAATTAAATCTATTCTAAAAGTAAGATTTTGCGGAGTCACCTAGTGCAG”, the binding signal was 3220 fluorescence intensity (a.u.).
On to “GTAAACAAAATCACCATGTCTTATATGTAGCAATAGTAGTCGGAGTCACCTAGTGCAG”, for which the binding signal is 3360 fluorescence intensity (a.u.).
Take “GTAAAATTAACTTTACAAAGCTATTTTAGTCTTGTTTTGCCGGAGTCACCTAGTGCAG”: the binding signal was 6910 fluorescence intensity (a.u.).
In the case of “TCTGTGCTGATTAATCTCTCCCTCTCTTTGTTCCTCTTCTCGGAGTCACCTAGTGCAG”, the binding signal was 13500 fluorescence intensity (a.u.).
As for “TACGTAATTATCATTTGTTTTATCGCTAGAAGTACTTTAGCGGAGTCACCTAGTGCAG”, the binding signal was 24100 fluorescence intensity (a.u.).
Under “TGCTTAATTTATATCATCACCGTTCAGTTAATACGGTATACGGAGTCACCTAGTGCAG” stands 30800 fluorescence intensity (a.u.); under “TTTGATTAGGAAAACAAGCGACAATATTTTGATTTTAAATCGGAGTCACCTAGTGCAG”, 12900 fluorescence intensity (a.u.).
With “ACAAATCAAAGAGCTTAATTGGTCAACAAGATGAGCTGCCCGGAGTCACCTAGTGCAG” the figure was 22800 fluorescence intensity (a.u.); with “CGTCTCACAAATTAATCGCAAATCTGTGCAATTGGTTATTCGGAGTCACCTAGTGCAG”, 3400 fluorescence intensity (a.u.); with “CTACCAAATTTAAATTTGATAATTTTAATAGTAGCAAATACGGAGTCACCTAGTGCAG”, 22100 fluorescence intensity (a.u.).
Under “ACAATATAATTTTCTATTATTTAACGGTATCGGTACTGTCCGGAGTCACCTAGTGCAG” stands 11100 fluorescence intensity (a.u.); under “CGTGGATTAAACAAACAGAGGATTTCGGTGAGGATTGAGGCGGAGTCACCTAGTGCAG”, 4160 fluorescence intensity (a.u.); under “CTCTAAATTTTCTGTCTCTTTCTTCCCTAGGTTCTTATCGCGGAGTCACCTAGTGCAG”, 6620 fluorescence intensity (a.u.).
With “ACATCTTAGTAATAGACTAGATTAATAATAAACCACTTCACGGAGTCACCTAGTGCAG”, the binding signal was 3850 fluorescence intensity (a.u.).
With “GTCAAAATTTGTTCAAATTTATCCCTTCTTTTCCCAAAATCGGAGTCACCTAGTGCAG” the figure was 5530 fluorescence intensity (a.u.); with “CTAGCTTCCAATCAACCAGACAACAACCACATATATCTTTCGGAGTCACCTAGTGCAG”, 3610 fluorescence intensity (a.u.).
Turning to “AGGCTACTGGATTAATTAATTATATCCTTCAATCAAACAACGGAGTCACCTAGTGCAG”, the binding signal is 20500 fluorescence intensity (a.u.).
Turning to “TCCTACAAATTAATTTATAATGTCATAAGATTTATATTTTCGGAGTCACCTAGTGCAG”, the binding signal is 22100 fluorescence intensity (a.u.).
Consider “AATTGATTTCTTCGCTGATGAGCAAACATGCTGGAGAGTGCGGAGTCACCTAGTGCAG”, for which the binding signal is 36400 fluorescence intensity (a.u.).
Under “TTGTAGTTAACTTTTGATAAGATTGAGATGGAATTTCATACGGAGTCACCTAGTGCAG” stands 8280 fluorescence intensity (a.u.); under “CTTTTGGAATTGACAATGATGACGAAGGGAGTGCATTTGACGGAGTCACCTAGTGCAG”, 13100 fluorescence intensity (a.u.).
Under “TATAATTTTGTGCTAATATGCATTTTCCTTGTTTTGTTTACGGAGTCACCTAGTGCAG” stands 11500 fluorescence intensity (a.u.); under “AAAACCGTCCTAATTAATGTAATCCTGAACGATACGACGACGGAGTCACCTAGTGCAG”, 9010 fluorescence intensity (a.u.).
“ATGAATGAGTATAAATTATCTGTACTAGAATAATTGGCTCCGGAGTCACCTAGTGCAG”: the binding signal was 7760 fluorescence intensity (a.u.).
Consider “GTTATATGATTGATTTATAATTTTCTAATAATTATACCAACGGAGTCACCTAGTGCAG”, for which the binding signal was 50100 fluorescence intensity (a.u.).
Under “AAGCAATTACTCACTAAATTGGCTATGGCTAGTGAGAGGTCGGAGTCACCTAGTGCAG” stands 33200 fluorescence intensity (a.u.); under “TGAGATATGTATTTGCCAATTATCCCCATATCTCTTTGAGCGGAGTCACCTAGTGCAG”, 3180 fluorescence intensity (a.u.); under “TTTGATGTAATAAGTTTCACTTCGAAATTAAATCAGGGGTCGGAGTCACCTAGTGCAG”, 4610 fluorescence intensity (a.u.).
For the sequence “TGTAATTACACTATAATTATATTCTAAATACATCTGTTAACGGAGTCACCTAGTGCAG”, the binding signal is 45500 fluorescence intensity (a.u.).
With “ATTTATAATATTTAATTTAATTCAACCATGTGAGAATTTTCGGAGTCACCTAGTGCAG” the figure was 3940 fluorescence intensity (a.u.); with “GTTACTATGATGTCCATCAAATTTGAACACATCCAGACTTCGGAGTCACCTAGTGCAG”, 5730 fluorescence intensity (a.u.); with “GTTTTGATTATCATAGCTCATAGATGGGCACTCCGCCACTCGGAGTCACCTAGTGCAG”, 22200 fluorescence intensity (a.u.).
In the case of “ATCAATCAATTATTTTAGTTCAGATTCTGCACAAAACAAACGGAGTCACCTAGTGCAG”, the binding signal is 3830 fluorescence intensity (a.u.).
Regarding “AAGCACTAATTTCTTATCCGCTTTAGCTTCCCGTGAGGCCCGGAGTCACCTAGTGCAG”, the binding signal is 5050 fluorescence intensity (a.u.).
With “TTATTTATCAGTCTGATTTTATATAATGTAATATTATGCACGGAGTCACCTAGTGCAG” the figure was 3150 fluorescence intensity (a.u.); with “ATTGATTAAACCCGGCCTCTACATCCAAACTGGATGTACACGGAGTCACCTAGTGCAG”, 19000 fluorescence intensity (a.u.).
As for “TCAAATTGTGGAGCGAAATTATCTTTGGAAGTATTTGTCCCGGAGTCACCTAGTGCAG”, the binding signal is 5950 fluorescence intensity (a.u.).
For “CTAATTAATTAATCACAAGATAATGTATCGTTCCGTTTTCCGGAGTCACCTAGTGCAG”, the binding signal is 43500 fluorescence intensity (a.u.).
As to “GACTAATTGACTTGGACGGAGACCCCGCTGTTGAAGGTCACGGAGTCACCTAGTGCAG”, the binding signal is 39200 fluorescence intensity (a.u.).
